This is one part of the list. At the low end of the ranking the order means little.

This test has as its target GST-SBP-SLBP (stem-loop binding protein) (UniProt Q14493). Nature of the test: targeted RNA Bind-n-Seq.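 Also: DESeq read counts versus GST-SBP nonspecific binding control pulldown.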 The settings on record: RBNS binding buffer: 25 mM Tris pH 7.5, 150 mM KCl, 3 mM MgCl2, 0.1% Tween, 0.5 mg/mL BSA, 1 mM DTT; 27 nM protein, 750 pM RNA pool; temperature not stated; high values mean tight binding.
Take “GGUCACGUCUCAAUCAACUCAUUCUCCAGGGAAAACCCUGGCUUUUUCAACAGCUCGCAGUCAAG”: the binding signal (log2 fold change) is -0.2.
The same measure for “GGUCACGUCUCAAUCAACUCUUAGGAGGGGGGGAAAACCCCUUUACCCUCAAUAUCAACAGCUCGCAGUCAAG”: 0.154; for “GGUCACGUCUCAAUCAACUCAUUCCCAGGAGUUUACUCCUGUUAUCUCAACAGCUCGCAGUCAAG”: -0.00931.
The value for “GGUCACGUCUCAAUCAACUCUAUCUCAGGAGUUUUCUCCUGCAAUCUCAACAGCUCGCAGUCAAG” was 0.234.
The value for “GGUCACGUCUCAAUCAACUCAAUUCCCAGGGAAACCCCUGGCUUACUCAACAGCUCGCAGUCAAG” was 0.0784; that for “GGUCACGUCUCAAUCAACUCCAUCGAGGGGGGGAAAACCCCUUUACCCUCAUCCUCAACAGCUCGCAGUCAAG” was -0.326; that for “GGUCACGUCUCAAUCAACUCAACUCCCAGGGAAAGCCCUGGCAAACUCAACAGCUCGCAGUCAAG” was -0.00374.
On to “GGUCACGUCUCAAUCAACUCAUCUUCAGGAGUUUUCUCCUGCAAACUCAACAGCUCGCAGUCAAG”, for which the binding signal (log2 fold change) stood at 0.191.
The same measure for “GGUCACGUCUCAAUCAACUCUUCGCCAGGAGUUUUCUCCUGUAUUCUCAACAGCUCGCAGUCAAG”: -0.14; for “GGUCACGUCUCAAUCAACUCUAUCCCCAGGGAAAUCCCUGGCAAACUCAACAGCUCGCAGUCAAG”: 0.241.
The same measure for “GGUCACGUCUCAAUCAACUCAUCCUCCAGGGAAAUCCCUGGUUUUUUCAACAGCUCGCAGUCAAG”: -0.309; for “GGUCACGUCUCAAUCAACUCUAUCGAGGGGGGGAAAACCCCUUUGCCCUCAUUUUCAACAGCUCGCAGUCAAG”: -0.827; for “GGUCACGUCUCAAUCAACUCUUCCCCCAGGGAAAACCCUGGUAAUGUCAACAGCUCGCAGUCAAG”: 0.0222.
The value for “GGUCACGUCUCAAUCAACUCUACUUCCAGGGAAAGCCCUGGCUAAUUCAACAGCUCGCAGUCAAG” was -0.0525.
For “GGUCACGUCUCAAUCAACUCCUCUGAGGGGGGGAAAACCCCUUUACCCUCCACAUCAACAGCUCGCAGUCAAG”, the binding signal (log2 fold change) is -0.0165.
The same measure for “GGUCACGUCUCAAUCAACUCAGUCCCAGGAGUUUACUCCUGUAUUUUCAACAGCUCGCAGUCAAG”: -0.0836.
The value for “GGUCACGUCUCAAUCAACUCAUUUCCCAGGGAAACCCCUGGCUUUCUCAACAGCUCGCAGUCAAG” was 0.075; that for “GGUCACGUCUCAAUCAACUCUCAAGAGGGGGGGAAAACCCCUUUGCCCUCAAUCUCAACAGCUCGCAGUCAAG” was 0.167; that for “GGUCACGUCUCAAUCAACUCACAAGAGGGGGGGAAAACCCCUUUACCCUCCAUAUCAACAGCUCGCAGUCAAG” was 0.0993.
As for “GGUCACGUCUCAAUCAACUCUUUCCCCAGGGAAACCCCUGGCUAACUCAACAGCUCGCAGUCAAG”, the binding signal (log2 fold change) is -0.152.
The same measure for “GGUCACGUCUCAAUCAACUCUAGUCCAGGAGUUUACUCCUGCAAUUUCAACAGCUCGCAGUCAAG”: 0.00711; for “GGUCACGUCUCAAUCAACUCAUCUCCCAGGGAAAUCCCUGGUUUACUCAACAGCUCGCAGUCAAG”: 0.207; for “GGUCACGUCUCAAUCAACUCUAUUCCCAGGGAAACCCCUGGCUAUUUCAACAGCUCGCAGUCAAG”: 0.147.
The same measure for “GGUCACGUCUCAAUCAACUCAAUCUCAGGAGUUUCCUCCUGUAAAUUCAACAGCUCGCAGUCAAG”: 0.0953; for “GGUCACGUCUCAAUCAACUCAACUCCAGGAGUUUUCUCCUGUUUACUCAACAGCUCGCAGUCAAG”: -0.0942; for “GGUCACGUCUCAAUCAACUCUUUCGAGGGGGGGAAAACCCCUUUACCCUCAUAAUCAACAGCUCGCAGUCAAG”: 0.336.
The value for “GGUCACGUCUCAAUCAACUCAUCUCCCAGGGAAAGCCCUGGCUAUUUCAACAGCUCGCAGUCAAG” was 0.0564; that for “GGUCACGUCUCAAUCAACUCUUCUUCAGGAGUUUCCUCCUGUAAACUCAACAGCUCGCAGUCAAG” was 0.0543; that for “GGUCACGUCUCAAUCAACUCAUUCCCCAGGGAAAUCCCUGGUUUACUCAACAGCUCGCAGUCAAG” was 0.124.
For “GGUCACGUCUCAAUCAACUCUAUCUCCAGGGAAACCCCUGGCUAACUCAACAGCUCGCAGUCAAG”, the binding signal (log2 fold change) amounted to 0.366.
As for “GGUCACGUCUCAAUCAACUCCAAAGAGGGGGGGAAAACCCCUUUGCCCUCAAAAUCAACAGCUCGCAGUCAAG”, the binding signal (log2 fold change) was -0.253.
The same measure for “GGUCACGUCUCAAUCAACUCAGUCCCCAGGGAAACCCCUGGUAUAUUCAACAGCUCGCAGUCAAG”: 0.0296.
The value for “GGUCACGUCUCAAUCAACUCUAUCCCCAGGGAAAGCCCUGGCAAACUCAACAGCUCGCAGUCAAG” was 0.252.
The same measure for “GGUCACGUCUCAAUCAACUCUCUAGAGGGGGGGAAAACCCCUUUACCCUCGUCUUCAACAGCUCGCAGUCAAG”: -0.261; for “GGUCACGUCUCAAUCAACUCCAUAGAGGGGGGGAAAACCCCUUUGCCCUCAUCUUCAACAGCUCGCAGUCAAG”: -0.515; for “GGUCACGUCUCAAUCAACUCUUCUCCCAGGGAAAGCCCUGGUUAACUCAACAGCUCGCAGUCAAG”: 0.335.
Take “GGUCACGUCUCAAUCAACUCAUUCGAGGGGGGGAAAACCCCUUUACCCUCAAUAUCAACAGCUCGCAGUCAAG”: the binding signal (log2 fold change) is -0.393.
The same measure for “GGUCACGUCUCAAUCAACUCCCCAGAGGGGGGGAAAACCCCUUUACCCUCCGUUUCAACAGCUCGCAGUCAAG”: -0.195; for “GGUCACGUCUCAAUCAACUCUACUUCAGGAGUUUUCUCCUGCAAUCUCAACAGCUCGCAGUCAAG”: 0.0382.
With “GGUCACGUCUCAAUCAACUCACAAGAGGGGGGGAAAACCCCUUUACCCUCCAAUUCAACAGCUCGCAGUCAAG”, the binding signal (log2 fold change) stood at 0.0513.
The same measure for “GGUCACGUCUCAAUCAACUCUUUUGCAGGAGUUUUCUCCUGGUAUCUCAACAGCUCGCAGUCAAG”: 0.025; for “GGUCACGUCUCAAUCAACUCUUCCCCAGGAGUUUUCUCCUGUAAUGUCAACAGCUCGCAGUCAAG”: 0.112; for “GGUCACGUCUCAAUCAACUCUAUCCCCAGGGAAAGCCCUGGCAUUUUCAACAGCUCGCAGUCAAG”: 0.292.
Take “GGUCACGUCUCAAUCAACUCUUCCUCAGGAGUUUCCUCCUGUAUUUUCAACAGCUCGCAGUCAAG”: the binding signal (log2 fold change) is -0.0517.
As for “GGUCACGUCUCAAUCAACUCAAUUCCAGGAGUUUUCUCCUGUUAAUUCAACAGCUCGCAGUCAAG”, the binding signal (log2 fold change) is 0.0988.
The value for “GGUCACGUCUCAAUCAACUCAGUCUCAGGAGUUUACUCCUGCAUUCUCAACAGCUCGCAGUCAAG” was -0.00986; that for “GGUCACGUCUCAAUCAACUCUCUGGAGGGGGGGAAAACCCCUUUACCCUCAUCAUCAACAGCUCGCAGUCAAG” was -0.387; that for “GGUCACGUCUCAAUCAACUCAUCUCCCAGGGAAAACCCUGGCUUUCUCAACAGCUCGCAGUCAAG” was -0.0926.
For “GGUCACGUCUCAAUCAACUCAUCUUCCAGGGAAAUCCCUGGCAAUUUCAACAGCUCGCAGUCAAG”, the binding signal (log2 fold change) amounted to 0.0192.
The value for “GGUCACGUCUCAAUCAACUCAUCCUCAGGAGUUUCCUCCUGCAAACUCAACAGCUCGCAGUCAAG” was 0.314; that for “GGUCACGUCUCAAUCAACUCUUCUCCAGGAGUUUACUCCUGUAUUCUCAACAGCUCGCAGUCAAG” was -0.0838.
“GGUCACGUCUCAAUCAACUCAGUUCCAGGAGUUUUCUCCUGCAAAUUCAACAGCUCGCAGUCAAG”: the binding signal (log2 fold change) was -0.148.
The same measure for “GGUCACGUCUCAAUCAACUCAAUCCCAGGAGUUUUCUCCUGCUUAGUCAACAGCUCGCAGUCAAG”: 0.111; for “GGUCACGUCUCAAUCAACUCAUCGGAGGGGGGGAAAACCCCUUUACCCUCAAAAUCAACAGCUCGCAGUCAAG”: -0.0467; for “GGUCACGUCUCAAUCAACUCAUCUUCCAGGGAAAACCCUGGUUUUCUCAACAGCUCGCAGUCAAG”: 0.255.
The value for “GGUCACGUCUCAAUCAACUCAUCGCCCAGGGAAAACCCUGGUUAAUUCAACAGCUCGCAGUCAAG” was -0.239.
As for “GGUCACGUCUCAAUCAACUCAAUCUCCAGGGAAAACCCUGGUAUUCUCAACAGCUCGCAGUCAAG”, the binding signal (log2 fold change) worked out at 0.127.
The same measure for “GGUCACGUCUCAAUCAACUCAUCGUCCAGGGAAAACCCUGGCUAAUUCAACAGCUCGCAGUCAAG”: 0.202.
The same measure for “GGUCACGUCUCAAUCAACUCAUUCGCAGGAGUUUACUCCUGGUUUUUCAACAGCUCGCAGUCAAG”: 0.0271; for “GGUCACGUCUCAAUCAACUCACACGAGGGGGGGAAAACCCCUUUACCCUCACACUCAACAGCUCGCAGUCAAG”: -0.287; for “GGUCACGUCUCAAUCAACUCUUCUCCCAGGGAAAUCCCUGGCUAUUUCAACAGCUCGCAGUCAAG”: 0.236.
The value for “GGUCACGUCUCAAUCAACUCUUCUUCCAGGGAAAGCCCUGGUAUUCUCAACAGCUCGCAGUCAAG” was -0.265; that for “GGUCACGUCUCAAUCAACUCUUACGAGGGGGGGAAAACCCCUUUACCCUCAAUUUCAACAGCUCGCAGUCAAG” was -0.125.
“GGUCACGUCUCAAUCAACUCAUCGCCCAGGGAAAGCCCUGGUAAUCUCAACAGCUCGCAGUCAAG”: the binding signal (log2 fold change) was -0.213.
“GGUCACGUCUCAAUCAACUCAUUCUCAGGAGUUUACUCCUGCAUAUUCAACAGCUCGCAGUCAAG”: the binding signal (log2 fold change) was -0.0629.
The value for “GGUCACGUCUCAAUCAACUCUUUCCCAGGAGUUUUCUCCUGCAAUGUCAACAGCUCGCAGUCAAG” was 0.0482; that for “GGUCACGUCUCAAUCAACUCAAAAGAGGGGGGGAAAACCCCUUUGCCCUCAUCGUCAACAGCUCGCAGUCAAG” was -0.217.
The value for “GGUCACGUCUCAAUCAACUCAAUCUCCAGGGAAAGCCCUGGUUUACUCAACAGCUCGCAGUCAAG” was 0.242; that for “GGUCACGUCUCAAUCAACUCAUCCCCCAGGGAAAGCCCUGGUAUACUCAACAGCUCGCAGUCAAG” was 0.0323.
The same measure for “GGUCACGUCUCAAUCAACUCCUCAGAGGGGGGGAAAACCCCUUUGCCCUCAUUAUCAACAGCUCGCAGUCAAG”: -0.604; for “GGUCACGUCUCAAUCAACUCAUACGAGGGGGGGAAAACCCCUUUACCCUCACACUCAACAGCUCGCAGUCAAG”: -0.06; for “GGUCACGUCUCAAUCAACUCAUCCUCAGGAGUUUCCUCCUGUAUAUUCAACAGCUCGCAGUCAAG”: 0.207.
Regarding “GGUCACGUCUCAAUCAACUCCUUAGAGGGGGGGAAAACCCCUUUACCCUCCCAAUCAACAGCUCGCAGUCAAG”, the binding signal (log2 fold change) was -0.243.
The value for “GGUCACGUCUCAAUCAACUCUUCCCCAGGAGUUUUCUCCUGCAUUUUCAACAGCUCGCAGUCAAG” was 0.121.

For the origin of these results see paper PMC5892938.
